Experimental data published in PubChem BioAssay AID624260 (Broad Institute, 2012).
Hit rate of the full screen: of about 44,000 compounds, about 30 (0.07%) were called active. This list was built around the results that the source calls inconclusive (neither active nor inactive); the mix of calls is not that of the screen. Rule as the data show it: active = inhibition above about 54% (passing the limit was not always enough); inconclusive = no clear call, values can overlap the other calls.

What follows are molecules tested against Histone-lysine N-methyltransferase NSD2 (Homo sapiens) (UniProt O96028) (assay: NSD2 histone methyltransferase activity blockers – biochemical, plate reader, single point, primary screen (AID 624260;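 also: inhibitors reduce the monomethyl H3K36 fluorescence signal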)). Settings: NSD2-SET H3K36me1 DELFIA fluorescence, at 12.5 µM, stronger effect = higher value.
UniProt O96028, sequence (O96028 whole entry, looked up): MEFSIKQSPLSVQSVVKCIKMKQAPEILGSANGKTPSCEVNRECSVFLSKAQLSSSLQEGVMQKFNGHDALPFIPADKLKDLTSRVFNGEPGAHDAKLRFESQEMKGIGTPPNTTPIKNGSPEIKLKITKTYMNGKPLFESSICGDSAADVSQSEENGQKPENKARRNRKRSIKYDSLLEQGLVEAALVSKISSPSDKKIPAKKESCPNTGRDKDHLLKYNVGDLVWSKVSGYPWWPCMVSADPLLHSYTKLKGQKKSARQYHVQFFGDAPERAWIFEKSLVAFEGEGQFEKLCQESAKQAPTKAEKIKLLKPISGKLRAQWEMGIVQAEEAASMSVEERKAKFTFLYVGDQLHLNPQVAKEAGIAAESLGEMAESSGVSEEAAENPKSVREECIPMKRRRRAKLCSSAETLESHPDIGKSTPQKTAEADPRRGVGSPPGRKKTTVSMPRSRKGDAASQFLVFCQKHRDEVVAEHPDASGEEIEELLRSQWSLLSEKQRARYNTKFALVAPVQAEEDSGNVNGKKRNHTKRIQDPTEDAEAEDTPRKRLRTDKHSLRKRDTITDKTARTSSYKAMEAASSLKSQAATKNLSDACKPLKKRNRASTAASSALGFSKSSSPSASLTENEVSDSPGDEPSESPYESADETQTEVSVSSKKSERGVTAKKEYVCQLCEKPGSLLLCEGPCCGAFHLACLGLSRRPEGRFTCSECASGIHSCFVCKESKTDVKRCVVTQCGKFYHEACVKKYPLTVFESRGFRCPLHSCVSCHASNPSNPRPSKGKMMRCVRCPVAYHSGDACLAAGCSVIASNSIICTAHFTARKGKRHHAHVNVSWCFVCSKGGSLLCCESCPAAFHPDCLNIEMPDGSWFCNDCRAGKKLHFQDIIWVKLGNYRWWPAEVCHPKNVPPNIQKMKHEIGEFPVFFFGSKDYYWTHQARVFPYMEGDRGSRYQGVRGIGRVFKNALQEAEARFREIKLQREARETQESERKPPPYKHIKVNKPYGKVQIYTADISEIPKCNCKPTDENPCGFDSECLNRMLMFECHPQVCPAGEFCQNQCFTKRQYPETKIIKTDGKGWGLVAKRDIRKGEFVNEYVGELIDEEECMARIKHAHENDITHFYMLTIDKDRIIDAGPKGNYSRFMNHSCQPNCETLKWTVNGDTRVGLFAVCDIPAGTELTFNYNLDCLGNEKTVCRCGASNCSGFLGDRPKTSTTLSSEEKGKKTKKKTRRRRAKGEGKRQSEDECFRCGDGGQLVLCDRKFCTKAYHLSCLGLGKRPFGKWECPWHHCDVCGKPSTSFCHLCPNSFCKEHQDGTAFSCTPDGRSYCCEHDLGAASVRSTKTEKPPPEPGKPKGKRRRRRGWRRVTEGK

Row | SMILES | inhibition
1 | C[C@@H]1CN([C@@H](C)CO)C(=O)Cc2cc(NC(=O)C3CC3)ccc2O[C@H]1CN(C)C(=O)NC1CCCCC1 | inactive: 4.29%
2 | CC(C)NC(=O)N(C)C[C@@H]1OCCCC[C@H](C)Oc2ccc(NC(=O)CCC(F)(F)F)cc2C(=O)N([C@@H](C)CO)C[C@H]1C | inconclusive: 131%
3 | C[C@@H]1O[C@@H](O[C@@H]2[C@@H](O)[C@H](O[C@@H]3[C@@H](O)[C@@H](O)[C@H](O[C@H]4[C@H](OC(=O)[C@]56CCC(C)(C)C[C@H]5C5=CCC7[C@@]8(C)C[C@H](O)[C@H](O[C@@H]9O[C@H](C(=O)O)[C@@H](O)[C@H](O)[C@H]9O)[C@@](C)(CO)C8[C@H](O)C[C@@]7(C)[C@]5(C)C[C@H]6O)O[C@@H](CO)[C@@H]4O)O[C@H]3C)OC[C@H]2O)[C@H](O)[C@H](O)[C@H]1O (some centres not stated) | active: 73.9%
4 | CCOc1ccc(NC(=O)N(Cc2cn(C)c3ccccc23)C2CCCCC2)cc1 | inactive: 2.96%
5 | C[C@@H]1CN([C@H](C)CO)C(=O)c2cc(NC(=O)Nc3ccccc3)ccc2O[C@@H](C)CCCCO[C@H]1CN(C)C(=O)C1CCCCC1 | inconclusive: 178%
6 | CC1(C)CC(=O)C2=C(C1)c1c(ccc3ncccc13)NC2C1CC=CCC1 (configuration not stated) | inactive: 1.06%
7 | Cc1nn(C)c(C)c1/C=C/C(=O)C(C)(C)C | inactive: 0.115%
8 | C[C@H](CO)N1C[C@H](C)[C@@H](CN(C)S(=O)(=O)c2cccs2)Oc2ccc(NC(=O)Nc3ccc(C(F)(F)F)cc3)cc2CC1=O | inactive: -1.82%
9 | C/C=C/c1cnc2c(c1)C(=O)N([C@H](C)CO)C[C@@H](C)[C@H](CN(C)S(=O)(=O)c1ccc(F)cc1)O2 | inconclusive: 110%
10 | C[C@@H]1CN([C@H](C)CO)C(=O)c2cc(NC(=O)Cc3ccccc3)ccc2O[C@@H](C)CCCCO[C@H]1CN(C)C | inconclusive: 199%
11 | COc1ccccc1C#Cc1ccc2c(c1)O[C@H](CN(C)C(C)=O)[C@@H](C)CN([C@H](C)CO)S2(=O)=O | inconclusive: 84.2%
12 | CCCC#Cc1ccc2c(c1)O[C@H](CN(C)C(=O)c1ccncc1)[C@@H](C)CN([C@@H](C)CO)S2(=O)=O | inactive: 10%
13 | C=C(C(=O)O)C1C(OC(=O)/C(=C/CO)CO)CC(C)(O)C2CC(OC(C)=O)C(C)=CC12 (configuration not stated) | inactive: 6.09%
14 | Cc1noc(C)c1S(=O)(=O)Nc1ccc2c(c1)C(=O)N([C@@H](C)CO)C[C@H](C)[C@H](CN(C)C(=O)Nc1ccc3c(c1)OCO3)O2 | inconclusive: 135%
15 | CCN(CC)CCOc1ccc(/C(=C(\Cl)c2ccccc2)c2ccccc2)cc1 | inactive: 1.68%
16 | COc1ccc(NC(=O)Nc2ccc3c(c2)C(=O)N([C@H](C)CO)C[C@@H](C)[C@H](CN(C)C(=O)Cc2ccccc2)OCCCC[C@H](C)O3)cc1 | inactive: -2.17%
17 | C[C@@H]1CN([C@H](C)CO)C(=O)c2cc(NS(C)(=O)=O)ccc2O[C@H]1CN(C)C(=O)Nc1ccc2c(c1)OCO2 | inactive: 7.43%
18 | CC(=O)N(C)C[C@H]1Oc2cc(C#C[C@@H](C)O)ccc2S(=O)(=O)N([C@H](C)CO)C[C@H]1C | inconclusive: 142%
19 | COc1ccccc1S(=O)(=O)N(C)C[C@H]1Oc2cc(C#CCC(C)C)ccc2S(=O)(=O)N([C@@H](C)CO)C[C@H]1C | inconclusive: 130%

Row | SMILES | inhibition
20 | O=C(C(NS(=O)(=O)c1cccc2nsnc12)c1ccccc1)N1CCc2ccccc21 (configuration not stated) | inactive: -2.58%
21 | CCc1c(O)cc(OC)c2c1O[C@H](C)CC2=O | inactive: -1.15%
22 | CC1OC(OC2C(CO)OC(OC(=O)[C@]34CCC(C)(C)CC3C3=CCC5[C@@]6(C)CC[C@H](OC7OC(C)C(OC8OCC(O)(COC9OCC(O)C(OC%10OCC(OC%11OCC(O)(CO)C%11O)C(O)C%10O)C9O)C8O)C(O)C7O)C(C)(C)C6CC[C@@]5(C)[C@]3(C)CC4)C(O)C2O)C(O)C(O)C1O (some centres not stated) | inactive: 1.69%
23 | CC(C)NC(=O)N(C)C[C@@H]1OCCCC[C@H](C)Oc2ccc(NS(C)(=O)=O)cc2C(=O)N([C@@H](C)CO)C[C@H]1C | inconclusive: 57.9%
24 | Cc1noc(C)c1NC(=O)N(C)C[C@@H]1OCCCC[C@H](C)Oc2ccc(NS(C)(=O)=O)cc2C(=O)N([C@@H](C)CO)C[C@H]1C | inconclusive: 86.9%
25 | O=C(C[C@@H]1C[C@H]2c3cc(NS(=O)(=O)c4ccccc4)ccc3O[C@H]2[C@H](CO)O1)NCC(F)(F)F | inactive: -0.571%
26 | C[C@H](CO)N1C[C@H](C)[C@@H](CN(C)S(=O)(=O)c2ccc(Cl)cc2)Oc2ccc(NC(=O)NC3CCCCC3)cc2C1=O | inconclusive: 147%
27 | COCC#Cc1ccc2c(c1)O[C@@H](CN(C)S(=O)(=O)c1ccc(F)cc1)[C@@H](C)CN([C@H](C)CO)S2(=O)=O | inconclusive: 66.1%
28 | C[C@@H]1CCCCO[C@H](CN(C)C(=O)Cc2ccccc2)[C@@H](C)CN([C@H](C)CO)C(=O)c2cc(NC(=O)Nc3ccccc3)ccc2O1 | inconclusive: 188%
29 | CC(=O)CCC1C2C(O)C(C(C)C)C(OC(=O)/C=C/c3ccccc3)CC12C (configuration not stated) | inactive: -11.4%
30 | O=P(CCNCc1cccnc1)(c1ccccc1)c1ccccc1 | inactive: -0.918%
31 | CC(=O)Nc1ccc2c(c1)nc1n2CCN(Cc2ccco2)C1 | inactive: 0.183%
32 | COC(=O)C1=CO[C@@H](O[C@@H]2O[C@H](CO)[C@@H](O)[C@H](O)[C@H]2O)[C@H]2[C@@H]1C=CC21C=C([C@H](C)O)C(=O)O1 (some centres not stated) | inactive: 1.45%
33 | COc1ccc(NC(=O)N(C)C[C@@H]2Oc3c(NS(=O)(=O)c4ccc(F)cc4)cccc3C(=O)N([C@H](C)CO)C[C@@H]2C)cc1 | inconclusive: 71.2%
34 | CCCC#Cc1cnc2c(c1)C(=O)N([C@@H](C)CO)C[C@H](C)[C@H](CN(C)C(=O)c1ccccc1)O2 | inconclusive: 67.4%
35 | CN(C)c1ccc2c(c1)[C@@H]1C[C@@H](CC(=O)NCc3ccc(Oc4ccccc4)cc3)O[C@@H](CO)[C@@H]1O2 | inconclusive: 173%
36 | NC(=O)CN1C(=O)C(O)(C2CCc3ccccc3C2=O)c2ccccc21 (configuration not stated) | inactive: -6.56%
37 | C[C@H](CO)N1C[C@H](C)[C@H](CN(C)S(=O)(=O)c2ccccc2)Oc2c(NC(=O)c3nc4ccccc4s3)cccc2C1=O | inconclusive: 166%
38 | COCC(=O)N(C)C[C@@H]1Oc2ncc(C#CC(C)(C)O)cc2C(=O)N([C@@H](C)CO)C[C@@H]1C | inactive: -99.2%

Row | SMILES | inhibition
39 | C[C@@H]1CCCCO[C@@H](CN(C)C(=O)CCC(F)(F)F)[C@@H](C)CN([C@H](C)CO)C(=O)c2cc(N(C)C)ccc2O1 | inconclusive: 124%
40 | C[C@@H]1CN([C@@H](C)CO)C(=O)c2cc(-c3ccc(F)cc3)cnc2O[C@H]1CN(C)Cc1ccccn1 | inconclusive: 54.8%
41 | CC(C)(C)OC(=O)NC1(/C=N/NC(=O)c2ccccn2)CCCC1 | inactive: -2.84%
42 | C/C=C/c1ccc2c(c1)O[C@H](CN(C)C(=O)Nc1ccccc1)[C@H](C)CN([C@@H](C)CO)S2(=O)=O | inactive: -4.94%
43 | C[C@H](CO)N1C[C@H](C)[C@@H](CN(C)Cc2ccccn2)Oc2cc(-c3cncnc3)ccc2S1(=O)=O | inconclusive: 123%
44 | C[C@@H]1CCCCO[C@@H](CN(C)C(=O)Nc2ccccc2)[C@@H](C)CN([C@H](C)CO)C(=O)c2cc(NC(=O)Cc3ccccc3)ccc2O1 | inconclusive: 142%
45 | C[C@@H]1CN([C@H](C)CO)C(=O)c2cc(-c3ccncc3)cnc2O[C@H]1CN(C)Cc1cccnc1 | inactive: 3.88%
46 | CCCOc1ccc2oc(=O)c3c(c2c1)CCCN3C(=O)CN(C)c1ccc(C)cc1 | inactive: 3.32%
47 | C[C@@H]1CN([C@H](C)CO)C(=O)c2cccc(NC(=O)C3CCOCC3)c2O[C@@H]1CN(C)S(=O)(=O)c1ccc(Cl)cc1 | inconclusive: 59.1%
48 | COc1cc([C@H]2OC[C@H]3[C@@H]2CO[C@H]3c2ccc(OC)c(OC)c2)ccc1O | inactive: -0.794%
49 | C[C@@H]1CCCCO[C@@H](CN(C)S(=O)(=O)c2ccccc2)[C@@H](C)CN([C@H](C)CO)C(=O)c2cc(NS(C)(=O)=O)ccc2O1 | inconclusive: 55.5%
50 | CCC(=O)N(C)C[C@H]1Oc2cc(-c3ccc(C)cc3)ccc2S(=O)(=O)N([C@@H](C)CO)C[C@H]1C | inactive: -0.743%
51 | C[C@H]1CCCCO[C@@H](CN(C)Cc2ccccc2)[C@@H](C)CN([C@@H](C)CO)C(=O)c2cc(NS(C)(=O)=O)ccc2O1 | inconclusive: 149%
52 | COc1ccc(S(=O)(=O)N(C)C[C@H]2Oc3ccc(NC(=O)Cc4cn(C)c5ccccc45)cc3C(=O)N([C@H](C)CO)C[C@@H]2C)cc1 | inconclusive: 191%
53 | C[C@@H]1CCCCO[C@@H](CN(C)C(=O)Nc2ccc(F)cc2)[C@H](C)CN([C@H](C)CO)C(=O)c2cc(NS(=O)(=O)c3ccccc3)ccc2O1 | inconclusive: 68.9%
54 | COc1ccc(CN(C)C[C@H]2OCCCC[C@@H](C)Oc3ccc(NS(=O)(=O)c4cccs4)cc3C(=O)N([C@H](C)CO)C[C@H]2C)cc1 | inactive: 7.26%
55 | Cc1ccc(-c2ccc3c(c2)O[C@@H](CN(C)CC2CC2)[C@@H](C)CN([C@@H](C)CO)S3(=O)=O)cc1 | inactive: 2.16%
56 | O=C(NO)c1ccc(C(=O)N/N=C/c2ccc(O)c(O)c2O)cc1 | active: 60.5%
57 | COc1ccccc1NC(=O)N(C)C[C@@H]1OCc2cnnn2CCCC(=O)N([C@H](C)CO)C[C@H]1C | inconclusive: 83.4%
